Data taken from the supplement of paper PMC10441789.
This is one part of the list. Antibody binding of pooled human sera (four to six donors per pool; dilution not stated) to peptides of the Trypanosoma cruzi antigen TSSA on microarrays. Quantile-normalised fluorescence in arbitrary units, mean of duplicate arrays; higher = more binding. No active / inactive call. The uninfected pools are read here as the healthy donors of the same country. The strongest signals lie near the top of the scale (about 60,000).

Assays:
Test in all cases: antibody binding signal (normalised fluorescence) (arbitrary fluorescence units); higher = stronger serum antibody binding to peptide
[1] = tested on: pooled sera of chronic Chagas disease patients, Argentina
Method: (§1)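 Microarray of 15-residue peptides over residues 30-55 of Trypanosoma cruzi TSSAII, each with 1 to 10 substitutions at naturally variable positions, probed with one serum pool per country.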

[2] = tested on: pooled sera of chronic Chagas disease patients, Bolivia
Method: as §1

[3] = tested on: pooled sera of chronic Chagas disease patients, Brazil
Method: as §1

[4] = tested on: pooled sera of chronic Chagas disease patients, Colombia
Method: as §1

[5] = tested on: pooled sera of chronic Chagas disease patients, Mexico
Method: as §1

[6] = tested on: pooled sera of chronic Chagas disease patients, USA
Method: as §1

[7] = tested on: pooled sera of uninfected people, Argentina
Method: as §1

[8] = tested on: pooled sera of uninfected people, Bolivia
Method: as §1

[9] = tested on: pooled sera of uninfected people, Brazil
Method: as §1

[10] = tested on: pooled sera of uninfected people, Mexico
Method: as §1

[11] = tested on: pooled sera of uninfected people, USA
Method: as §1

Sequence	antibody binding signal [1]	antibody binding signal [2]	antibody binding signal [3]	antibody binding signal [4]	antibody binding signal [5]	antibody binding signal [6]	antibody binding signal [7]	antibody binding signal [8]	antibody binding signal [9]	antibody binding signal [10]	antibody binding signal [11]
SGKENKAATGETPSQ	4880	6270	27000	1750	2120	18000	8100	3410	204	464	255
KKAAAGGTPSPPGAS	214	213	188	2050	155	1170	192	134	567	69.9	238
TPPSGKENKAAAGET	10200	9930	2480	488	1920	3400	2760	1960	209	259	247
ENKAAAGGTPSQSGA	391	755	419	3200	307	1200	234	174	2000	214	161
STPPSGTEKKAATGG	37900	16000	29600	6960	11400	5020	947	503	204	219	322
SGKENKPATGETPSQ	36300	26600	36400	1230	2130	23400	8610	4310	163	2110	220
NKAATGEAPSPPGAS	12900	44200	39700	398	191	26800	528	981	302	213	1280
GTENKPATGEAPSQS	52100	45400	49600	1810	3860	44800	1190	1620	443	235	169
KAAAGETPSPPGASS	320	295	3070	263	195	727	154	229	134	162	493
GTEKKAATGETPSPS	4030	1740	8890	1350	2080	12400	547	783	319	486	2870
GKDKKAATGEAPSQP	12600	4220	32100	1290	1570	18700	219	85.8	117	72.8	92.7
KDKKAATGEAPSPPG	11800	15200	19200	160	228	17200	251	84.8	128	75.1	116
GTEKKPATGEAPSQP	45900	44000	44400	1220	2280	40700	854	1430	2040	391	781
